Source: PubChem BioAssay AID488969 (Vanderbilt High Throughput Screening Facility, 2010)
The full ranking holds about 110,000 compounds; the median of “z-score” is about -0.1, and the highest 2% start at about 2. The list shows a part of the results.

Target: Metabotropic glutamate receptor 8 (Rattus norvegicus) (UniProt P70579)
Test: mGluR8 Gi/Go-coupled signaling modulation – cell-based, rat, thallium flux, HTS, primary screen (AID 488969)
Conditions: HEK293 rat mGluR8, GIRK (G protein-gated inwardly rectifying potassium channel) thallium flux, FluoZin2; at 10 µM; stronger effect = higher value; submaximal glutamate (EC20) added with thallium

Chain of UniProt P70579 (P70579 whole entry, looked up): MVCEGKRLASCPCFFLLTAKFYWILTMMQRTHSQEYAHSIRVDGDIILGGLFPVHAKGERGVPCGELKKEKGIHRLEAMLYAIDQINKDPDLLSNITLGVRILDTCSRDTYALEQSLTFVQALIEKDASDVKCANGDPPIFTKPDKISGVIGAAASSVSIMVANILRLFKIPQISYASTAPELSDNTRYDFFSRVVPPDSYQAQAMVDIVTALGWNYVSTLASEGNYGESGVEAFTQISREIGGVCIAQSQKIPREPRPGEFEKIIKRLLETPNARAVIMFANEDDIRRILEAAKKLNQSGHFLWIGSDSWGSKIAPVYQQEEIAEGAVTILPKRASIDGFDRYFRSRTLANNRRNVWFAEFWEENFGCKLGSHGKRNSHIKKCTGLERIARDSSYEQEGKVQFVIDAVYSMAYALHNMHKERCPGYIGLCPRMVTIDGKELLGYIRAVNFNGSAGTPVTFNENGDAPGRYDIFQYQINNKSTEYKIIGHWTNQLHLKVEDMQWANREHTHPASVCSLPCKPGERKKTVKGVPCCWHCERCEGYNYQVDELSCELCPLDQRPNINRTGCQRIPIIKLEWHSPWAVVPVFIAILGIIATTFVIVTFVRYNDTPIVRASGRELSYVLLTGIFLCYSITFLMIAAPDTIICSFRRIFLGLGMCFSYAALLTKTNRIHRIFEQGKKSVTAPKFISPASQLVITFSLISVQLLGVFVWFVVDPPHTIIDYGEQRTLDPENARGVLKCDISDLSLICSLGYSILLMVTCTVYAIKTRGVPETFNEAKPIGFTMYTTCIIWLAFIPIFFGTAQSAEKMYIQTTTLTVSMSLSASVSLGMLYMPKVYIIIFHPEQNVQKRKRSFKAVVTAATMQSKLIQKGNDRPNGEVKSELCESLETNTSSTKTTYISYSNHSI

Row | Structure (SMILES) | z-score
1 | CCCN(CC(=O)Nc1ccc(C(N)=O)cc1)CC(=O)Nc1ccc(Cl)cc1Cl | -0.265
2 | CSc1ccc(CNC2CC2)cc1 | -0.218
3 | Cc1ccccc1N(CC(=O)N/N=C/c1cc(C)n(-c2ccccc2C)c1C)S(C)(=O)=O | -0.854
4 | CN1CCN(/C=N/C2=C(C#N)C(c3ccccc3)C3=C(CC(C)(C)CC3=O)O2)CC1 (centres undefined) | 0.0919
5 | Cc1cc(C(=O)c2ccccc2)c(NC(=O)CCl)s1 | -0.02
6 | Cc1nc2ccc(NC(=O)N3CCCCC3)cc2s1 | 0.236
7 | COc1ccccc1OCC(=O)N/N=C1/SCC(=O)N1Cc1ccccc1 | -0.336
8 | Cc1cc(C)c(-c2csc(Cc3nc(-c4cc5ccccc5oc4=O)cs3)n2)cc1C | -0.0426
9 | O=C(CSCc1c(Cl)cccc1Cl)NCC1CCCO1 (centres undefined) | 0.4
10 | COc1cccc(C2=NN(C(=O)c3ccccc3)C(O)(C(F)(F)F)C2)c1 (centres undefined) | 2.79
11 | CCC(C)(C(=O)NC1CCCCC1)N(Cc1cccs1)C(=O)c1ccc(=O)[nH]c1 (centres undefined) | -1.13
12 | C/C(=N/Nc1cc(-c2ccccc2)nc(-c2ccccc2)n1)c1ccc(O)cc1 | -0.24
13 | CCOc1cccc(C(=O)Nc2nnc(-c3cccs3)s2)c1 | -0.0225
14 | CCOCCCNC(=O)c1cn(C)c2ccc(S(=O)(=O)N(C)C3CCCCC3)cc2c1=O | -0.205
15 | Cc1ccc(SCCC(=O)NCC2CCCO2)cc1 (centres undefined) | 0.277
16 | CCOc1cc(CNCCN(C)C)c(Cl)cc1OCC(=O)NCCc1ccccc1 | -0.307
17 | COc1ccc(OC)c(S(=O)(=O)N2CCC(C(=O)N3CCN(Cc4ccccc4)CC3)CC2)c1 | 0.163
18 | Cc1ccc(N2C(=O)C3Sc4[nH]c(=O)sc4C(c4ccccc4)C3C2=O)cc1 (centres undefined) | -0.0232
19 | O=C(Cc1cccc2ccccc12)Nc1nc2ccccc2[nH]1 | -0.343
20 | CN1CCN(CC(O)COCc2ccc3c(c2)OCO3)CC1 (centres undefined) | 0.1
21 | O=C(Cn1nnc(-c2ccccc2)n1)OCc1ccccc1 | -0.682
22 | CCC(C)S(=O)(=O)c1snnc1C (centres undefined) | -0.203
23 | N#C/C(=C/c1ccc(N2CCOCC2)o1)C(=O)N1CCOCC1 | -0.81

Row | Structure (SMILES) | z-score
24 | COCCn1c(=NC(=O)c2ccco2)sc2cc(C(=O)OC)ccc21 | -0.298
25 | CCCCOC(=O)CCN1C(=O)/C(=C2\SC(=S)N(CCC(=O)OCCCC)C2=O)SC1=S | 0.0657
26 | COc1ccc2cnnc(SCC(=O)Nc3ccc(C(C)=O)cc3)c2c1OC | 0.233
27 | O=C1CCC/C1=C/Nc1ccc2c(c1)OCO2 | -0.133
28 | Oc1nc(Nc2cccc(Cl)c2)sc1/C=C1\C=Nc2ccccc21 | -0.421
29 | CN=C(Nc1cccc(OC)c1)SC1CC(=O)N(c2ccc(C(=O)O)cc2)C1=O (centres undefined) | 0.144
30 | CC(NC(=O)Cn1nc(C(F)(F)F)c2c1CCC2)c1ccccc1 (centres undefined) | -0.132
31 | CCC(CC)c1nc(NCCC(=O)O)c2ccccc2n1 | 0.794
32 | CN(C)S(=O)(=O)c1ccc(NC(=O)c2cc3ccccc3o2)cc1 | -0.429
33 | COC(=O)C1=C(C)NC2=C(C(=O)CC(C)(C)C2)C1c1cccc(C)n1 (centres undefined) | -0.0115
34 | O=C(c1ccc2c3c(cccc13)CC2)N1CCOCC1 | -0.642
35 | CCOC(=O)COc1ccc([N+](=O)[O-])cc1 | 0.183
36 | Cc1ccc(CC(=O)Nc2ccccc2-c2ccccc2)cc1C | 0.122
37 | Cc1ccc(CN2CCN(C(=O)C3CCC3)CC2)cc1 | -0.128
38 | Cc1ccc(NC(=O)Cn2nc(C)c3ccccc3c2=O)c(C)c1 | -0.883
39 | O=c1c2ccccc2[nH]c(=S)n1Cc1cccs1 | 2.21
40 | CCC(C)C(=O)Nc1nc(C)c(-c2csc(Nc3cc(OC)ccc3OC)n2)s1 (centres undefined) | 0.2
41 | COC(=O)c1c(-c2ccc(F)cc2)csc1NC(=O)c1ccco1 | -0.518
42 | CC(NC(=O)COC(=O)c1cc(NS(=O)(=O)c2ccc(Cl)c([N+](=O)[O-])c2)ccc1O)C1CC2CCC1C2 (centres undefined) | -0.436
43 | Cc1nc2nc(-c3ccc(Cl)cc3)[nH]n2c(=O)c1C | -0.115
44 | O=C(O)c1ccccc1SC1CC(=O)N(C2CCCCC2)C1=O (centres undefined) | -0.0935
45 | CCC(C)NC(=O)c1c(N)n(/N=C/c2ccccn2)c2nc3ccccc3nc12 (centres undefined) | 0.186
46 | COC(=O)N/N=C/c1ccccc1OCc1ccccc1 | -0.0109

Row | Structure (SMILES) | z-score
47 | O=C(CN(Cc1ccccc1)S(=O)(=O)c1ccccc1)N1CCOCC1 | -0.108
48 | O=C(COc1ccc2ccccc2c1)NC1CC1 | -0.0157
49 | CCN(CC)S(=O)(=O)c1ccc2oc(C(=O)NC3CCCc4ccccc43)c(C)c2c1 (centres undefined) | -0.242
50 | O=C(COc1cccc2cccnc12)NCC(F)(F)F | 0.409
51 | CCc1noc(C)c1C(=O)Nc1nc(-c2cc(C)ccc2C)c(C)s1 | -0.199
52 | CC(=O)NNC(=O)CCC(=O)Nc1ccccc1 | -0.0343
53 | O=C(NC(C(=O)O)c1ccccc1)c1ccc(S(=O)(=O)N2CCOCC2)cc1 (centres undefined) | -0.0595
54 | COc1ccc(/C=C/c2nc(N)nc(-c3ccccc3O)n2)cc1 | 0.184
55 | Cc1ccc(C(=O)c2cn(-c3ccc(F)c(Cl)c3)nn2)cc1 | -0.0467
56 | COc1ccc(OCCC(=O)Nc2cc(C)on2)cc1 | -0.194
57 | COc1cccc(CN2CCN(C(=O)c3ccc(-c4ccccc4)cc3)CC2)c1 | -0.132
58 | CCN(CC)C(=O)Cn1c(=O)n(-c2ccccc2)c(=O)n1CC(=O)N(CC)CC | -0.312
59 | Cc1cccc(NC(=O)CSc2ccc(-c3ccco3)nn2)c1 | -0.359
60 | CC1(C)CC(=O)C=C(NNC(=O)c2ccc(N)cc2)C1 | -0.139
61 | Cc1nc2ccccc2c(=O)n1NC(=O)c1ccc(F)cc1Cl | 0.00649
62 | Cc1nnc(NC(=O)c2ccc3c(c2)C(=O)N(CC2CCCO2)C3=O)s1 (centres undefined) | 0.56
63 | O=[n+]1cc(-c2ccc(Cl)cc2)n([O-])c2c1CCCCC2 | 0.282
64 | CN(C)CCC(=O)NCC1OCCc2ccccc21 (centres undefined) | -0.0528
65 | C=COCCNC(=O)C(=O)NCC(C)C | -0.36
66 | N#CCC(CNc1ncc(C(F)(F)F)cc1Cl)OC(=O)c1c(F)cccc1F (centres undefined) | -0.143
67 | CC(=O)c1ccc(S(=O)(=O)Nc2cccc(S(=O)(=O)NC3=NCCC3)c2)cc1 | 0.128
68 | O=C1/C(=N\O)Cc2ccccc21 | -0.171
69 | Cc1nn(-c2ccc(F)cc2)c(Cl)c1/C=C(\CC(=O)O)c1nc2ccccc2s1 | -0.0248

Row | Structure (SMILES) | z-score
70 | c1ccc2sc(NC3=NCN(C4CCCCC4)CN3)nc2c1 | -0.12
71 | O=c1[nH]c(CN2CCCCC2)nc2c1C1(CCCC1)Cc1ccccc1-2 | 1.19
72 | Cc1[nH]n(-c2ccc(Cl)cc2)c(=O)c1C=NC12CN3CN(CN(C3)C1)C2 | -0.111
73 | Cc1cc(S(=O)(=O)NCCCN2CCOCC2)ccc1F | -0.474
74 | Cc1nc(N)sc1C(=O)N/N=C/c1ccco1 | -0.216
75 | Cc1ccc(OCCCC(=O)Nc2ccc(Br)cc2)cc1 | -0.235
76 | CCCOc1cc(C)c(Cl)cc1S(=O)(=O)N(CC)CC | -0.466
77 | O=C(Nc1ccc(N2CCOCC2)c(Cl)c1)c1ccc(F)cc1 | -0.0435
78 | O=C(Nc1ccc(Cl)c(Cl)c1)OCc1cncs1 | -0.767
79 | CC(=O)N/N=C/c1ccc(OCCOc2ccc(Br)cc2)cc1 | -0.00368
80 | CCN(CC)C(=O)N1CCN(S(=O)(=O)c2ccc(C)c(C)c2)CC1 | -0.245
81 | N#Cc1cn(CC(=O)N2CCCc3ccccc32)c2ccccc12 | -0.701
82 | CC(C)(C)OC(=O)N[C@@H](Cc1c[nH]c2ccccc12)c1nnc(SCC(N)=O)o1 | -0.161
83 | Cc1sc2nc3c(C(=O)N4CCN(c5ccccn5)CC4)cccn3c(=O)c2c1C | -0.411
84 | Cc1cccc2cc(C#N)c(SCC(=O)NNC(=O)Cc3ccccc3)nc12 | -0.161
85 | CCCn1c(N2CCC(Cc3ccccc3)CC2)nc2c1c(=O)[nH]c(=O)n2C | -0.364
86 | COc1ccc(OC)c(CN2CCCC(CO)C2)c1 (centres undefined) | -0.533
87 | Cc1ccc(CN2CC(C(=O)O)CC2=O)cc1 (centres undefined) | -0.155
88 | CCCCCc1nnc(N)s1 | 0.176
89 | Cc1ccc2c(SCC(=O)NCc3ccco3)nc(-c3ccc(F)cc3)nc2c1 | -0.411
90 | Cc1cccc(NC(=S)NCCc2c[nH]c3ccccc23)c1 | 0.201
91 | CCCOC(=O)CN1C(=O)c2ccc(C(=O)OCCC)cc2C1=O | -1.4
92 | O=C(Nc1ccccc1N1CCOCC1)c1ccccc1NS(=O)(=O)c1ccc(F)cc1 | -0.112

Row | Structure (SMILES) | z-score
93 | O=C1c2ccccc2COc2ccc(O)cc21 | 0.201
94 | Cn1cccc1/C=C1\SC(=S)N(NC(=O)c2ccccc2)C1=O | 0.205
95 | Cc1ccc(N2CN=c3s/c(=C\c4cccnc4)c(=O)n3C2)cc1 | 0.209
96 | COc1cccc(NC(=O)CSc2nnc(CN3CCOCC3)n2C)c1 | 0.89
97 | Cc1ncc([N+](=O)[O-])n1CCOC(=O)c1ccc(Cl)cc1Cl | -0.221
98 | CCC(C)NC(=O)CCSCCC(=O)NC(C)CC (centres undefined) | 0.331
99 | CCOc1ccc(/C(O)=C2/C(=O)C(=O)N(CCOCCO)C2c2ccccn2)cc1 (centres undefined) | 0.208
100 | O=C(NC(Cc1c[nH]c2ccccc12)c1nnc2n1CCCCC2)c1ccccc1Cl (centres undefined) | 0.246
101 | Cc1cccc2cc(C#N)c(SCC(=O)NCc3cccs3)nc12 | -0.979
102 | C=CCN=C(NC#N)SCc1ccccc1 | -0.0394
103 | COc1ccc(NC(=O)CSc2nc3c(c(-c4cccs4)c2C#N)CN(C)CC3)cc1OC | -0.342
104 | Cn1cnnc1SCC(=O)c1ccc2c(c1)OCO2 | -0.0967
105 | N#C/C=C(/N)N1CCN(c2ccc(Cl)c(Cl)c2)CC1 | 0.375
106 | O=C1c2ccccc2C(=O)N1CC(=O)N1c2ccccc2CCc2ccccc21 | 0.145
107 | O=C1c2ccccc2NC(c2ccc(-c3cccc(Cl)c3)o2)N1O (centres undefined) | 2.57
108 | Cc1noc(C)c1COc1ccc(C(=O)OCC(=O)NC23CC4CC(CC(C4)C2)C3)cc1 | -0.1
109 | CCN(c1ccccc1)S(=O)(=O)c1ccc(NCC2COc3ccccc3O2)nc1 (centres undefined) | -0.478
110 | O=C(Nc1cnc2sc3c(n2c1=O)CCCC3)c1ccc(F)cc1 | -0.413
111 | Cc1cccc(C)c1NC(=O)C1NC(=O)CC1c1ccccc1 (centres undefined) | -0.192
112 | COc1ccccc1C(=O)N(NC(=O)Oc1ccccc1)C(C)(C)C | 0.266
113 | COc1ccc(NC(=O)c2csc(Cc3ccccc3)n2)cc1 | -0.31
114 | Cc1ccc(-c2nc3c(c(=O)c4ccccc4n3C)c(=O)n2-c2ccccc2)cc1 | -1.09
